The text below walks through data of article PMC7679444.

Sequences of proteins named here, by UniProt entry; tags and fusion partners are left off. A change or cut given only in a name is not applied to a line headed by its entry. Residues count along the entry.
GST-ΔWDD (ATG16L1 1–319) (Q676U5, residues 1-319): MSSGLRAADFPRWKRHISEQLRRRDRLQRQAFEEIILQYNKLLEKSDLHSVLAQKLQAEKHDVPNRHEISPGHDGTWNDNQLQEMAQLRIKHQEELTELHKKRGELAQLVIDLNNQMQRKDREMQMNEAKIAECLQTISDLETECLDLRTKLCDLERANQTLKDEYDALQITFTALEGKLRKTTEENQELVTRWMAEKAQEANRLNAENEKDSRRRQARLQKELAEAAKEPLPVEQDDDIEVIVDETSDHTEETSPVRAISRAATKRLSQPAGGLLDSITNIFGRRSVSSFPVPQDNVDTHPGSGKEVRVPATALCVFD
GST-WDD (ATG16L1 320–607) (Q676U5, residues 320-607): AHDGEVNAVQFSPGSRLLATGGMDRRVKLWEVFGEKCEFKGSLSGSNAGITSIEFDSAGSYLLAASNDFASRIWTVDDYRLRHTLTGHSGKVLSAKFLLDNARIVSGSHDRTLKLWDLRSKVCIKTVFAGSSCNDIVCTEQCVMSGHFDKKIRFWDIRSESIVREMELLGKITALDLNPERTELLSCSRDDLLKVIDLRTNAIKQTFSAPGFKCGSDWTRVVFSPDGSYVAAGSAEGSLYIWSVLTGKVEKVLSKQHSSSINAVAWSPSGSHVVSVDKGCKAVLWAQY

Assay [1] concerns the target GST-WDD (ATG16L1 320–607) (human) (UniProt Q676U5). The assay can be described thus: co-IP; HEK-293T co-transfected with tagged receptor and GST-fused ATG16L1 fragment, lysed 36 h later (1% Igepal CA-630, diluted to 0,2%), GST precipitated with GSH-agarose beads, Western blot. For orientation: Immunoblotting shows a protein as a band on a membrane.
Assay [2] concerns the target GST-ΔWDD (ATG16L1 1–319) (human) (UniProt Q676U5). Described as above.

No constants are given. Whether binding was seen depends on the method and setting. In cells and extracts the contact can be indirect. Some binding calls cover weakened binding; strength is not graded here. Where a sequence is shown, tags or fusion partners need not be part of it.

B1: IL-18R1, tagged (receptor, UniProt Q13478 19-541)
chain: AESCTSRPHITVVEGEPFYLKHCSCSLAHEIETTTKSWYKSSGSQEHVELNPRSSSRIALHDCVLEFWPVELNDTGSYFFQMKNYTQKWKLNVIRRNKHSCFTERQVTSKIVEVKKFFQITCENSYYQTLVNSTSLYKNCKKLLLENNKNPTIKKNAEFEDQGYYSCVHFLHHNGKLFNITKTFNITIVEDRSNIVPVLLGPKLNHVAVELGKNVRLNCSALLNEEDVIYWMFGEENGSDPNIHEEKEMRIMTPEGKWHASKVLRIENIGESNLNVLYNCTVASTGGTDTKSFILVRKADMADIPGHVFTRGMIIAVLILVAVVCLVTVCVIYRVDLVLFYRHLTRRDETLTDGKTYDAFVSYLKECRPENGEEHTFAVEILPRVLEKHFGYKLCIFERDVVPGGAVVDEIHSLIEKSRRLIIVLSKSYMSNEVRYELESGLHEALVERKIKIILIEFTPVTDFTFLPQSLKLLKSHRVLKWKADKSLSYNSRFWKNLLYLMPAKTVKPGRDEPEVLPVLSES
B1: the binding result in assay [1] is recorded as “binds”; in assay [2], “no binding”.

B2: IL-18RAP, tagged (receptor, UniProt O95256 20-599)
chain: FNISGCSTKKLLWTYSTRSEEEFVLFCDLPEPQKSHFCHRNRLSPKQVPEHLPFMGSNDLSDVQWYQQPSNGDPLEDIRKSYPHIIQDKCTLHFLTPGVNNSGSYICRPKMIKSPYDVACCVKMILEVKPQTNASCEYSASHKQDLLLGSTGSISCPSLSCQSDAQSPAVTWYKNGKLLSVERSNRIVVDEVYDYHQGTYVCDYTQSDTVSSWTVRAVVQVRTIVGDTKLKPDILDPVEDTLEVELGKPLTISCKARFGFERVFNPVIKWYIKDSDLEWEVSVPEAKSIKSTLKDEIIERNIILEKVTQRDLRRKFVCFVQNSIGNTTQSVQLKEKRGVVLLYILLGTIGTLVAVLAASALLYRHWIEIVLLYRTYQSKDQTLGDKKDFDAFVSYAKWSSFPSEATSSLSEEHLALSLFPDVLENKYGYSLCLLERDVAPGGVYAEDIVSIIKRSRRGIFILSPNYVNGPSIFELQAAVNLALDDQTLKLILIKFCYFQEPESLPHLVKKALRVLPTVTWRGLKSVPPNSRFWAKMRYHMPVKNSQGFTWNQLRITSRIFQWKGLSRTETTGRSSQPKEW
Regarding B2, the binding entry in assay [1] was “binds”; in assay [2], “no binding”.
